# Data from the supplement of paper PMC8728848.
# This is one part of the list.
# Experiments:
# Assay in all cases: glycan array binding signal (z-score within array); higher = stronger binding
# Conditions in all cases: glycan notation: IUPAC condensed, linker removed
# [1] = molecular target: Neu5Ac(a2-6)Gal(b1-4)GlcNAc(b1-2)Man(a1-3)[GlcNAc(b1-2)Man(a1-6)]Man(b1-4)GlcNAc(b1-4)GlcNAc
# In short: (§1)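 Glycan array binding is given as a within-array Z-score, which can be read as non-binding when negative. The arrays, 3228 of them, came from the Consortium for Functional Glycomics database and were retained only where the protein sequence was available. Z-scores were averaged across arrays of the same protein sequence at different concentrations or buffers and across linkers.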
# [2] = molecular target: Neu5Ac(a2-6)Gal(b1-4)GlcNAc(b1-2)Man(a1-3)[GlcNAc(b1-2)Man(b1-4)GlcNAc(b1-2)Man(a1-6)]Man(b1-4)GlcNAc(b1-4)GlcNAc
# In short: as §1
# [3] = molecular target: Neu5Ac(a2-6)Gal(b1-4)GlcNAc(b1-2)Man(a1-3)[Man(a1-6)]Man(b1-4)GlcNAc(b1-4)GlcNAc
# In short: as §1
# [4] = molecular target: Neu5Ac(a2-6)Gal(b1-4)GlcNAc(b1-2)Man(a1-3)[Neu5Ac(a2-6)Gal(b1-4)GlcNAc(b1-2)Man(a1-6)]Man(b1-4)GlcNAc(b1-4)GlcNAc
# In short: as §1
# [5] = molecular target: Neu5Ac(a2-6)Gal(b1-4)GlcNAc(b1-2)Man(a1-3)[Neu5Ac(a2-6)Gal(b1-4)GlcNAc(b1-2)Man(a1-6)]Man(b1-4)GlcNAc(b1-4)[Fuc(a1-6)]GlcNAc
# In short: as §1
# [6] = molecular target: Neu5Ac(a2-6)Gal(b1-4)GlcNAc(b1-2)Man(a1-6)Man(b1-4)GlcNAc(b1-4)GlcNAc
# In short: as §1
# [7] = molecular target: Neu5Ac(a2-6)Gal(b1-4)GlcNAc(b1-2)Man(a1-6)[Gal(b1-4)GlcNAc(b1-2)Man(a1-3)]Man(b1-4)GlcNAc(b1-4)GlcNAc
# In short: as §1
# [8] = molecular target: Neu5Ac(a2-6)Gal(b1-4)GlcNAc(b1-2)Man(a1-6)[GlcNAc(b1-2)Man(a1-3)]Man(b1-4)GlcNAc(b1-4)GlcNAc
# In short: as §1
# [9] = molecular target: Neu5Ac(a2-6)Gal(b1-4)GlcNAc(b1-2)Man(a1-6)[Man(a1-3)]Man(b1-4)GlcNAc(b1-4)GlcNAc
# In short: as §1
# [10] = molecular target: Neu5Ac(a2-6)Gal(b1-4)GlcNAc(b1-3)Gal(b1-3)GlcNAc
# In short: as §1
# [11] = molecular target: Neu5Ac(a2-6)Gal(b1-4)GlcNAc(b1-3)Gal(b1-4)GlcNAc
# In short: as §1
# [12] = molecular target: Neu5Ac(a2-6)Gal(b1-4)GlcNAc(b1-3)Gal(b1-4)GlcNAc(b1-3)Gal(b1-4)GlcNAc
# In short: as §1
# [13] = molecular target: Neu5Ac(a2-6)Gal(b1-4)GlcNAc(b1-3)Gal(b1-4)[Fuc(a1-3)]GlcNAc(b1-3)Gal(b1-4)[Fuc(a1-3)]GlcNAc
# In short: as §1
# [14] = molecular target: Neu5Ac(a2-6)Gal(b1-4)GlcNAc(b1-3)GalNAc
# In short: as §1
# [15] = molecular target: Neu5Ac(a2-6)Gal(b1-4)GlcNAc(b1-3)[Neu5Ac(a2-6)Gal(b1-4)GlcNAc(b1-6)]GalNAc
# In short: as §1
# [16] = molecular target: Neu5Ac(a2-6)Gal(b1-4)GlcNAc(b1-6)GalNAc
# In short: as §1
# [17] = molecular target: Neu5Ac(a2-6)Gal(b1-4)GlcNAc(b1-6)[Gal(b1-3)GlcNAc(b1-3)]Gal(b1-4)Glc
# In short: as §1
# [18] = molecular target: Neu5Ac(a2-6)Gal(b1-4)GlcNAc6S
# In short: as §1
# [19] = molecular target: Neu5Ac(a2-6)GalNAc
# In short: as §1
# [20] = molecular target: Neu5Ac(a2-6)GalNAc(b1-4)GlcNAc
# In short: as §1
# [21] = molecular target: Neu5Ac(a2-6)GalNAc(b1-4)GlcNAc6S
# In short: as §1
# [22] = molecular target: Neu5Ac(a2-6)GlcNAc(b1-4)GlcNAc
# In short: as §1
# [23] = molecular target: Neu5Ac(a2-6)GlcNAc(b1-4)GlcNAc(b1-4)GlcNAc
# In short: as §1
# [24] = molecular target: Neu5Ac(a2-8)Neu5Ac
# In short: as §1
# [25] = molecular target: Neu5Ac(a2-8)Neu5Ac(a2-3)Gal(b1-3)GalNAc(b1-4)[Neu5Ac(a2-8)Neu5Ac(a2-3)]Gal(b1-4)Glc
# In short: as §1
# [26] = molecular target: Neu5Ac(a2-8)Neu5Ac(a2-3)Gal(b1-4)Glc
# In short: as §1
# [27] = molecular target: Neu5Ac(a2-8)Neu5Ac(a2-3)[Gal(b1-3)GalNAc(b1-4)]Gal(b1-4)Glc
# In short: as §1
# [28] = molecular target: Neu5Ac(a2-8)Neu5Ac(a2-3)[GalNAc(b1-4)]Gal(b1-4)Glc
# In short: as §1
# [29] = molecular target: Neu5Ac(a2-8)Neu5Ac(a2-8)Neu5Ac
# In short: as §1
# [30] = molecular target: Neu5Ac(a2-8)Neu5Ac(a2-8)Neu5Ac(a2-3)Gal(b1-4)Glc
# In short: as §1
# [31] = molecular target: Neu5Ac(a2-8)Neu5Ac(a2-8)Neu5Ac(a2-3)[GalNAc(b1-4)]Gal(b1-4)Glc
# In short: as §1
# [32] = molecular target: Neu5Ac(a2-8)Neu5Ac(a2-8)Neu5Ac(a2-8)Neu5Ac(a2-3)[GalNAc(b1-4)]Gal(b1-4)Glc
# In short: as §1
# [33] = molecular target: Neu5Ac(b2-6)Gal(b1-4)GlcNAc
# In short: as §1
# [34] = molecular target: Neu5Ac(b2-6)GalNAc
# In short: as §1
# [35] = molecular target: Neu5Ac9Ac(a2-3)Gal(b1-3)GlcNAc
# In short: as §1
# [36] = molecular target: Neu5Ac9Ac(a2-3)Gal(b1-4)GlcNAc
# In short: as §1
# [37] = molecular target: Neu5Ac9Ac(a2-6)Gal(b1-4)GlcNAc
# In short: as §1
# [38] = molecular target: Neu5Gc(a2-3)Gal(b1-3)GlcNAc
# In short: as §1
# [39] = molecular target: Neu5Gc(a2-3)Gal(b1-3)[Fuc(a1-4)]GlcNAc
# In short: as §1
# [40] = molecular target: Neu5Gc(a2-3)Gal(b1-4)Glc
# In short: as §1
# [41] = molecular target: Neu5Gc(a2-3)Gal(b1-4)GlcNAc
# In short: as §1
# [42] = molecular target: Neu5Gc(a2-3)Gal(b1-4)[Fuc(a1-3)]GlcNAc
# In short: as §1
# [43] = molecular target: Neu5Gc(a2-6)Gal(b1-4)GlcNAc
# In short: as §1
# [44] = molecular target: Neu5Gc(a2-6)GalNAc
# In short: as §1
# [45] = molecular target: Neu5Gc(b2-6)Gal(b1-4)GlcNAc
# In short: as §1
binder,measurement,setting,value
"Gal 8 (Homo sapiens), O00214_1 (protein) MMLSLNNLQNIIYNPVIPFVGTIPDQLDPGTLIVIRGHVPSDADRFQVDLQNGSSMKPRADVAFHFNPRFKRAGCIVCNTLINEKWGREEITYDTPFKREKSFEIVIMVLKDKFQVAVNGKHTLLYGHRIGPEKIDTLGIYGKVNIHSIGFSFSSDLQSTQASSLELTEISRENVPKSGTPQLRLPFAARLNTPMGPGRTVVVKGEVNANAKSFNVDLLAGKSKDIALHLNPRLNIKAFVRNSFLQESWGEEERNITSFPFSPGMYFEMIIYCDVREFKVAVNGVHSLEYKHRFKELSSIDTLEINGDIHLLEVRSW",glycan array binding signal (z-score),[1],-0.262
same,glycan array binding signal (z-score),[2],-0.232
same,glycan array binding signal (z-score),[3],-0.656
same,glycan array binding signal (z-score),[4],-0.211
same,glycan array binding signal (z-score),[5],-2.59
same,glycan array binding signal (z-score),[6],-0.223
same,glycan array binding signal (z-score),[7],-0.203
same,glycan array binding signal (z-score),[8],-0.251
same,glycan array binding signal (z-score),[9],-0.252
same,glycan array binding signal (z-score),[10],1.49
same,glycan array binding signal (z-score),[11],0.344
same,glycan array binding signal (z-score),[12],1.24
same,glycan array binding signal (z-score),[13],-0.201
same,glycan array binding signal (z-score),[14],-0.172
same,glycan array binding signal (z-score),[15],-0.231
same,glycan array binding signal (z-score),[16],-0.215
same,glycan array binding signal (z-score),[17],-0.157
same,glycan array binding signal (z-score),[18],-0.264
same,glycan array binding signal (z-score),[19],-0.217
same,glycan array binding signal (z-score),[20],-0.251
same,glycan array binding signal (z-score),[21],-0.215
same,glycan array binding signal (z-score),[22],-0.224
same,glycan array binding signal (z-score),[23],-0.22
same,glycan array binding signal (z-score),[24],-0.19
same,glycan array binding signal (z-score),[25],-0.942
same,glycan array binding signal (z-score),[26],0.626
same,glycan array binding signal (z-score),[27],-0.28
same,glycan array binding signal (z-score),[28],-0.176
same,glycan array binding signal (z-score),[29],-0.275
same,glycan array binding signal (z-score),[30],-0.135
same,glycan array binding signal (z-score),[31],0.35
same,glycan array binding signal (z-score),[32],-0.167
same,glycan array binding signal (z-score),[33],-0.194
same,glycan array binding signal (z-score),[34],0.463
same,glycan array binding signal (z-score),[35],0.202
same,glycan array binding signal (z-score),[36],-0.125
same,glycan array binding signal (z-score),[37],-0.272
same,glycan array binding signal (z-score),[38],0.307
same,glycan array binding signal (z-score),[39],-0.233
same,glycan array binding signal (z-score),[40],0.13
same,glycan array binding signal (z-score),[41],-0.262
same,glycan array binding signal (z-score),[42],-0.199
same,glycan array binding signal (z-score),[43],-0.197
same,glycan array binding signal (z-score),[44],-0.229
same,glycan array binding signal (z-score),[45],-0.219
